In paper PMC12820563:
The list shows a part of the results. The list includes weakly bound sequences.

What follows are sequences tested against T1, MBP-FoxP3dN (UniProt Q99JB6) (assay: PD-seq (MBP pull-down with sequencing)). Conditions: 20 mM Tris-HCl pH 7.5, 100 mM NaCl, 1.5 mM MgCl2, 0.4 uM protein, 0.1 uM dsDNA library, 30 min, room temperature, amylose pull-down; high values mean tight binding; double strand, one strand shown.
T1 sequence: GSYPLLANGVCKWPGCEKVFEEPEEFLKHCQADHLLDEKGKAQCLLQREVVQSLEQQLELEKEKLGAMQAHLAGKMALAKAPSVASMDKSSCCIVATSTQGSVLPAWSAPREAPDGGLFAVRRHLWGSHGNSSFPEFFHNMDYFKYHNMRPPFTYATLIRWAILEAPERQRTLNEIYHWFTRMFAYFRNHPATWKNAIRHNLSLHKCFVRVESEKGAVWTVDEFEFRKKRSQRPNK

Sequence | binding signal (RPM ratio (pull-down/input))
GATGATTGTTCTCCCAGCTGATGAATTCACGACGTCGAGTAAACAAATTTTCCTAATCTTTCTGTTCAAGCGCCATCTAC | 0.314
GATGATTGTTCTCCCAGCTGATGAATTTTCTTCTTCGAGTAAACAAATTTTCCTAATCTTTCTGTTCAAGCGCCATCTAC | 0.263
GATGATTGTTCTCCCAGCTGATGAATTAGTAAGTTCGAGTAAACAAATTTTCCTAATCTTTCTGTTCAAGCGCCATCTAC | 0.726
GATGATTGTTCTCCCAGCTGATGAATTGTTCGCATCGAGTAAACAAATTTTCCTAATCTTTCTGTTCAAGCGCCATCTAC | 1.1
GATGATTGTTCTCCCAGCTGATGAATTAGCGTATTCGAGTAAACAAATTTTCCTAATCTTTCTGTTCAAGCGCCATCTAC | 2.01
GATGATTGTTCTCCCAGCTGATGAATTGTGGCGGTCGAGTAAACAAATTTTCCTAATCTTTCTGTTCAAGCGCCATCTAC | 1.47
GATGATTGTTCTCCCAGCTGATGAATTACCTAATTCGAGTAAACAAATTTTCCTAATCTTTCTGTTCAAGCGCCATCTAC | 0.371
GATGATTGTTCTCCCAGCTGATGAATTACATCATTCGAGTAAACAAATTTTCCTAATCTTTCTGTTCAAGCGCCATCTAC | 0.931
GATGATTGTTCTCCCAGCTGATGAATTAGACAGCTCGAGTAAACAAATTTTCCTAATCTTTCTGTTCAAGCGCCATCTAC | 0.339
GATGATTGTTCTCCCAGCTGATGAATTCATGGCATCGAGTAAACAAATTTTCCTAATCTTTCTGTTCAAGCGCCATCTAC | 0.852
GATGATTGTTCTCCCAGCTGATGAATTACCAGGATCGAGTAAACAAATTTTCCTAATCTTTCTGTTCAAGCGCCATCTAC | 0.198
GATGATTGTTCTCCCAGCTGATGAATTGCTCTGCTCGAGTAAACAAATTTTCCTAATCTTTCTGTTCAAGCGCCATCTAC | 0.464
GATGATTGTTCTCCCAGCTGATGAATTTGGGTTTTCGAGTAAACAAATTTTCCTAATCTTTCTGTTCAAGCGCCATCTAC | 0.71
GATGATTGTTCTCCCAGCTGATGAATTGCAACCCTCGAGTAAACAAATTTTCCTAATCTTTCTGTTCAAGCGCCATCTAC | 2.12
GATGATTGTTCTCCCAGCTGATGAATTCTCAATGTCGAGTAAACAAATTTTCCTAATCTTTCTGTTCAAGCGCCATCTAC | 0.319
GATGATTGTTCTCCCAGCTGATGAATTACTAACGTCGAGTAAACAAATTTTCCTAATCTTTCTGTTCAAGCGCCATCTAC | 0.49
GATGATTGTTCTCCCAGCTGATGAATTGCGAACCTCGAGTAAACAAATTTTCCTAATCTTTCTGTTCAAGCGCCATCTAC | 0.619
GATGATTGTTCTCCCAGCTGATGAATTAAAGAGGTCGAGTAAACAAATTTTCCTAATCTTTCTGTTCAAGCGCCATCTAC | 0.179
GATGATTGTTCTCCCAGCTGATGAATTGATGTATTCGAGTAAACAAATTTTCCTAATCTTTCTGTTCAAGCGCCATCTAC | 2.27
GATGATTGTTCTCCCAGCTGATGAATTTGGAGTTTCGAGTAAACAAATTTTCCTAATCTTTCTGTTCAAGCGCCATCTAC | 1.2
GATGATTGTTCTCCCAGCTGATGAATTTAATTACTCGAGTAAACAAATTTTCCTAATCTTTCTGTTCAAGCGCCATCTAC | 4.86

Sequence | binding signal (RPM ratio (pull-down/input))
GATGATTGTTCTCCCAGCTGATGAATTACAGCAGTCGAGTAAACAAATTTTCCTAATCTTTCTGTTCAAGCGCCATCTAC | 0.516
GATGATTGTTCTCCCAGCTGATGAATTAACCGCGTCGAGTAAACAAATTTTCCTAATCTTTCTGTTCAAGCGCCATCTAC | 0.484
GATGATTGTTCTCCCAGCTGATGAATTTTGTCTGTCGAGTAAACAAATTTTCCTAATCTTTCTGTTCAAGCGCCATCTAC | 1.87
GATGATTGTTCTCCCAGCTGATGAATTCCAAAAGTCGAGTAAACAAATTTTCCTAATCTTTCTGTTCAAGCGCCATCTAC | 0.187
GATGATTGTTCTCCCAGCTGATGAATTGGACTGGTCGAGTAAACAAATTTTCCTAATCTTTCTGTTCAAGCGCCATCTAC | 0.268
GATGATTGTTCTCCCAGCTGATGAATTCAGATTGTCGAGTAAACAAATTTTCCTAATCTTTCTGTTCAAGCGCCATCTAC | 1.1
GATGATTGTTCTCCCAGCTGATGAATTGTAGTGCTCGAGTAAACAAATTTTCCTAATCTTTCTGTTCAAGCGCCATCTAC | 1.25
GATGATTGTTCTCCCAGCTGATGAATTTGTTGTATCGAGTAAACAAATTTTCCTAATCTTTCTGTTCAAGCGCCATCTAC | 7.55
GATGATTGTTCTCCCAGCTGATGAATTAATGCAGTCGAGTAAACAAATTTTCCTAATCTTTCTGTTCAAGCGCCATCTAC | 1.77
GATGATTGTTCTCCCAGCTGATGAATTTTGACCCTCGAGTAAACAAATTTTCCTAATCTTTCTGTTCAAGCGCCATCTAC | 0.5
GATGATTGTTCTCCCAGCTGATGAATTGCCTCTCTCGAGTAAACAAATTTTCCTAATCTTTCTGTTCAAGCGCCATCTAC | 1.04
GATGATTGTTCTCCCAGCTGATGAATTGGCGTGTTCGAGTAAACAAATTTTCCTAATCTTTCTGTTCAAGCGCCATCTAC | 1.25
GATGATTGTTCTCCCAGCTGATGAATTATTATGGTCGAGTAAACAAATTTTCCTAATCTTTCTGTTCAAGCGCCATCTAC | 0.87
GATGATTGTTCTCCCAGCTGATGAATTGGACTACTCGAGTAAACAAATTTTCCTAATCTTTCTGTTCAAGCGCCATCTAC | 0.339
GATGATTGTTCTCCCAGCTGATGAATTGTTTCTTTCGAGTAAACAAATTTTCCTAATCTTTCTGTTCAAGCGCCATCTAC | 1.93
GATGATTGTTCTCCCAGCTGATGAATTCTGAATCTCGAGTAAACAAATTTTCCTAATCTTTCTGTTCAAGCGCCATCTAC | 1.83
GATGATTGTTCTCCCAGCTGATGAATTTCGTTAGTCGAGTAAACAAATTTTCCTAATCTTTCTGTTCAAGCGCCATCTAC | 1.43
GATGATTGTTCTCCCAGCTGATGAATTGCACGGGTCGAGTAAACAAATTTTCCTAATCTTTCTGTTCAAGCGCCATCTAC | 0.514
GATGATTGTTCTCCCAGCTGATGAATTTAAGCGCTCGAGTAAACAAATTTTCCTAATCTTTCTGTTCAAGCGCCATCTAC | 0.4
GATGATTGTTCTCCCAGCTGATGAATTGATCCGGTCGAGTAAACAAATTTTCCTAATCTTTCTGTTCAAGCGCCATCTAC | 0.202
GATGATTGTTCTCCCAGCTGATGAATTTGCCGCTTCGAGTAAACAAATTTTCCTAATCTTTCTGTTCAAGCGCCATCTAC | 0.877

Sequence | binding signal (RPM ratio (pull-down/input))
GATGATTGTTCTCCCAGCTGATGAATTCCCCCCGTCGAGTAAACAAATTTTCCTAATCTTTCTGTTCAAGCGCCATCTAC | 0.208
GATGATTGTTCTCCCAGCTGATGAATTAGCCTGGTCGAGTAAACAAATTTTCCTAATCTTTCTGTTCAAGCGCCATCTAC | 0.399
GATGATTGTTCTCCCAGCTGATGAATTCCGACGTTCGAGTAAACAAATTTTCCTAATCTTTCTGTTCAAGCGCCATCTAC | 0.48
GATGATTGTTCTCCCAGCTGATGAATTTAGTTACTCGAGTAAACAAATTTTCCTAATCTTTCTGTTCAAGCGCCATCTAC | 3.04
GATGATTGTTCTCCCAGCTGATGAATTCGCGTATTCGAGTAAACAAATTTTCCTAATCTTTCTGTTCAAGCGCCATCTAC | 1.64
GATGATTGTTCTCCCAGCTGATGAATTACTTTTTTCGAGTAAACAAATTTTCCTAATCTTTCTGTTCAAGCGCCATCTAC | 0.47
GATGATTGTTCTCCCAGCTGATGAATTTAATCTCTCGAGTAAACAAATTTTCCTAATCTTTCTGTTCAAGCGCCATCTAC | 0.421
GATGATTGTTCTCCCAGCTGATGAATTCTTTCGGTCGAGTAAACAAATTTTCCTAATCTTTCTGTTCAAGCGCCATCTAC | 0.196
GATGATTGTTCTCCCAGCTGATGAATTATAAGGGTCGAGTAAACAAATTTTCCTAATCTTTCTGTTCAAGCGCCATCTAC | 0.258
GATGATTGTTCTCCCAGCTGATGAATTTGACTCCTCGAGTAAACAAATTTTCCTAATCTTTCTGTTCAAGCGCCATCTAC | 0.57
GATGATTGTTCTCCCAGCTGATGAATTGGAGAGTTCGAGTAAACAAATTTTCCTAATCTTTCTGTTCAAGCGCCATCTAC | 0.343
GATGATTGTTCTCCCAGCTGATGAATTGCTCAGGTCGAGTAAACAAATTTTCCTAATCTTTCTGTTCAAGCGCCATCTAC | 0.335
GATGATTGTTCTCCCAGCTGATGAATTTGTGCTCTCGAGTAAACAAATTTTCCTAATCTTTCTGTTCAAGCGCCATCTAC | 2.89
GATGATTGTTCTCCCAGCTGATGAATTTAGTGAGTCGAGTAAACAAATTTTCCTAATCTTTCTGTTCAAGCGCCATCTAC | 1.04
GATGATTGTTCTCCCAGCTGATGAATTTCCTTCTTCGAGTAAACAAATTTTCCTAATCTTTCTGTTCAAGCGCCATCTAC | 0.258
GATGATTGTTCTCCCAGCTGATGAATTAGTAATCTCGAGTAAACAAATTTTCCTAATCTTTCTGTTCAAGCGCCATCTAC | 1.15
GATGATTGTTCTCCCAGCTGATGAATTAATCGTTTCGAGTAAACAAATTTTCCTAATCTTTCTGTTCAAGCGCCATCTAC | 0.808
GATGATTGTTCTCCCAGCTGATGAATTATTTAAATCGAGTAAACAAATTTTCCTAATCTTTCTGTTCAAGCGCCATCTAC | 0.323
GATGATTGTTCTCCCAGCTGATGAATTTCTTGTATCGAGTAAACAAATTTTCCTAATCTTTCTGTTCAAGCGCCATCTAC | 0.65
GATGATTGTTCTCCCAGCTGATGAATTAAACCTCTCGAGTAAACAAATTTTCCTAATCTTTCTGTTCAAGCGCCATCTAC | 0.339
GATGATTGTTCTCCCAGCTGATGAATTAGGTTCTTCGAGTAAACAAATTTTCCTAATCTTTCTGTTCAAGCGCCATCTAC | 0.824
